Data taken from PMC4336329 (PLoS ONE, 2015).
Screen size: about 310,000 compounds; about 14,000 (4.5%) showed an effect of 50% or more. The effect is printed as a negative number. The list shows a part of the results.

target: human ether-à-go-go-related gene (hERG) potassium channel (human, UniProt Q12809); experiment: primary screen, population patch clamp on CHO cells stably expressing hERG
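Note: peak tail current of the secondary pulse compared with the same well before compound.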

Chain of human ether-à-go-go-related gene (hERG) potassium channel (Q12809 whole entry, looked up): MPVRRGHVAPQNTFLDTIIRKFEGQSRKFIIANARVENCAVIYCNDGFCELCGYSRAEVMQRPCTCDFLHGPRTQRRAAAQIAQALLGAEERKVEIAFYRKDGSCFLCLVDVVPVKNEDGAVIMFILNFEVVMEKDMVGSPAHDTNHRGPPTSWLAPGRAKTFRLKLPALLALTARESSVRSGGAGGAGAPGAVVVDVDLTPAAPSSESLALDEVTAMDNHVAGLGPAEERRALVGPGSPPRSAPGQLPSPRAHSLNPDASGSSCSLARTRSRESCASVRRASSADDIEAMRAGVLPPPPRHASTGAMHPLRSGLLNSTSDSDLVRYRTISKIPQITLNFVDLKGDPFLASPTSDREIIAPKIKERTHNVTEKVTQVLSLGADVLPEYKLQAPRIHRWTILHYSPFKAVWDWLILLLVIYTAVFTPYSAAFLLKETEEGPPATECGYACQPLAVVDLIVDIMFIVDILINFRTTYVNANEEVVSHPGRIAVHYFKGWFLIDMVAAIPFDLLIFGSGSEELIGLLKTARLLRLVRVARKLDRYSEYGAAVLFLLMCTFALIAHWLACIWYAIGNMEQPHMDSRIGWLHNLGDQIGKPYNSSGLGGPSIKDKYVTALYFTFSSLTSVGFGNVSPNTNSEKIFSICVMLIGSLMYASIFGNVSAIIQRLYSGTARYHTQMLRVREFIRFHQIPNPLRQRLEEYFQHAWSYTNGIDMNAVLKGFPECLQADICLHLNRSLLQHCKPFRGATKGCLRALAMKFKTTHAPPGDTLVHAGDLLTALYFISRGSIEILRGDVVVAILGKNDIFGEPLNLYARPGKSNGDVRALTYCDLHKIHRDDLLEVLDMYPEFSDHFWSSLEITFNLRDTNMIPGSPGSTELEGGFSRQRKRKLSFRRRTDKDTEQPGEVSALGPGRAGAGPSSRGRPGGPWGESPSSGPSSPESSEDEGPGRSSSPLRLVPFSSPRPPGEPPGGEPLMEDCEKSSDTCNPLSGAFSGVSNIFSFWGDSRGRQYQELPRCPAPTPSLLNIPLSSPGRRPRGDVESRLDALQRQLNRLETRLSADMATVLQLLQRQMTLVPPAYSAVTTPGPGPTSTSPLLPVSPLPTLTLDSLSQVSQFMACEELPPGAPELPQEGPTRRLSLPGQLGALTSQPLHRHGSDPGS

Compound	hERG current change (%, negative = inhibition) at 10uM
O=c1c(Cl)c(Nc2cccc(Cl)c2)cnn1-c1nc2ccccc2s1	-2.51%
Nc1ccc(N2CCCCC2)c(Cl)c1	19.3%
COc1ccc(CN2CCN(C(=O)c3c(-c4ccccc4)noc3C)CC2)cc1F	-32.1%
Fc1ccc(-n2cc(-c3ccccc3)c3c(NN4CCOCC4)ncnc32)cc1	-42.1%
CN(C)CCN=Cc1c(O)n(Cc2ccc3c(c2)OCO3)c(=S)[nH]c1=O	3.36%
Cc1nc2ccccc2c(=O)n1/N=C/c1c(O)ccc2ccccc12	-5.63%
Cc1ccc(Nc2nc(N)c([N+](=O)[O-])c(NCc3ccco3)n2)cc1C	-2.03%
Cc1ccc2nc(SCc3ccc([N+](=O)[O-])cc3)nc(C)c2c1	0.901%
COC(=O)c1cc(S(=O)(=O)NCC2CCN(Cc3ccc(Cl)cc3)CC2)cn1C	-17%
Cc1cc(NC(=O)NC(=O)c2ccccc2F)no1	13.7%
CC(O)CNc1nc2c(c(=O)n(C)c(=O)n2C)n1Cc1cccc(Br)c1 (centres unmarked)	4.29%
CC(CCc1ccccc1)NCC(O)COc1ccccc1 (centres unmarked)	-73.4%
Cc1ccc(/C=N/NC(=O)C2=NNC(c3ccccc3)(c3ccccc3)C2)c(O)c1	-7.94%
CCc1ccc(CNCc2cccnc2)cc1	-2.35%
CC(=O)Nc1ccc(NC(=O)CSc2nnc(NC(=O)C3CC(=O)N(c4ccc(F)cc4)C3)s2)cc1 (centres unmarked)	9.69%
C/C(=N\NC(=O)Cc1csc(N2CCOCC2)n1)c1ccccc1	-11.8%
CCOC(=O)c1sc(=S)n(-c2ccc(OC)cc2)c1C	-51.1%
CC(=O)NC(CCS(C)(=O)=O)C(=O)Nc1cc(C)on1 (centres unmarked)	6.57%
O=C(CSc1nc2ccccc2o1)NCc1n[nH]c(=O)c2ccccc12	-7.18%
CCOC(=O)c1cc2n(c1C)-c1ccccc1C2=O	1.53%
CC1(C)NC(=O)N(CC(O)CN(c2ccccc2)S(=O)(=O)c2ccc([N+](=O)[O-])cc2)C1=O (centres unmarked)	-13.7%
CC1(C)Cc2c(sc3c2C2=NCCN2C=N3)CO1.Cl	5.66%
Cc1ccc(C(C(=O)NC(C)(C)C)N(CCCN2CCOCC2)C(=O)c2ccc(-c3ccccc3)[nH]2)o1 (centres unmarked)	-76.5%

Compound	hERG current change (%, negative = inhibition) at 10uM
Cn1ccnc1C(O)(c1nnc(-c2ccccc2)o1)C(F)(F)F (centres unmarked)	11.3%
COC(=O)c1ccc(OC(=O)C2CSC3(C)CCC(=O)N23)cc1 (centres unmarked)	-1.4%
CN(C(=O)CS(=O)(=O)c1cn(CC(=O)N2CCOCC2)c2ccccc12)c1ccccc1	0.304%
COc1cccc(CC(=O)NCC2COc3ccccc3O2)c1OC (centres unmarked)	-3.65%
Cc1cc(C)c2c3c(sc2n1)C(=O)N(c1ccccc1)CC(=O)N3	24%
C=CCn1cc(/C=N/Nc2nc3ccccc3[nH]2)c2ccccc21	2.61%
CCCCc1ccc(NC=C2C(=O)OC3(CCCCC3)OC2=O)cc1	4.92%
Nc1c(C(=O)NCc2ccco2)c2nc3ccccc3nc2n1Cc1ccc(F)cc1	7.04%
CCOc1cc(C2NCc3ccccc3-n3cccc32)ccc1O.Cl (centres unmarked)	-11.8%
O=C(CSc1nnc(NC(=O)c2c(F)cccc2F)s1)Nc1ccccc1F	6.53%
Cn1c(CNC(=O)c2ccccc2F)cc2ccccc21	13.2%
CN1CCCN(C(=O)CC2(CC(=O)O)CCCCC2)CC1.Cl	28%
O=C(CSc1nccc(=O)[nH]1)N1CCOCC1	3.03%
C=CCNC(=O)CCCOc1cc(C)ccc1C	-9.84%
Cc1ccc(C#N)c(SCc2cccc(Br)c2)n1	12.6%
Cc1ccc(C(c2nnnn2CC2CCCO2)N2CCN(C)CC2)cc1.Cl (centres unmarked)	-7.48%
O=C(OCc1nnc(-c2ccc(Br)cc2)o1)c1cncc(Br)c1	-2.38%
c1nc(N2CCOCC2)c2[nH]cnc2n1	9.77%
CC1CCN(CCCNS(=O)(=O)c2ccc3c(c2)CCN3C(=O)C2CC2)CC1	-0.0814%
CCc1cc(C(=O)c2ccc(OC)cc2)c(NC(=O)CC(C)(C)CC(=O)O)s1	8.98%
CCOC(=O)c1cc2c(s1)-c1c(C)cccc1OC2	7.36%
Cc1ccc(N2CC(C(=O)NCCS(=O)(=O)N3CCN(c4ccccc4)CC3)CC2=O)cc1C (centres unmarked)	-1.56%
CNC(=S)N1N=C(c2ccc(Br)cc2)CC1c1ccc(Br)cc1 (centres unmarked)	4.92%

Compound	hERG current change (%, negative = inhibition) at 10uM
COc1cc(OC)c(C(=O)NCc2cccnc2)cc1OC	2.26%
O=c1c2sccc2[nH]c(=S)n1-c1ccccc1	-12.5%
CC1CCCN(c2cc(N(C)CCO)c([N+](=O)[O-])c3nonc23)C1 (centres unmarked)	6.11%
CSCCC(NC(=O)c1ccccc1Br)C(=O)NNC(=O)c1ccco1 (centres unmarked)	13.6%
CCCNS(=O)(=O)c1ccc(CCC(=O)NCC2CCCO2)cc1 (centres unmarked)	11.5%
COCCNC(=O)CN1CCC(NC(=O)Nc2ccccc2)CC1	-8.21%
CC1(OC(=O)C2CCCC2)C(=O)C=C2C=C(c3ccc(C#N)cc3)OC=C2C1=O (centres unmarked)	26.3%
Cc1nc(Cc2nnc(SCC(=O)N(C)c3ccccc3)o2)cs1	15.9%
Cc1ccc(C)c(Nc2ccc(C(=O)NCCc3ccccc3)cn2)c1	-20.9%
Cc1cc(C(F)F)n2nc(C(=O)Nc3cccnc3Cl)nc2n1	16.4%
COCc1ccc(CN2CCCC(CCC(=O)NCc3cccc(OC)c3)C2)o1 (centres unmarked)	-23.5%
CCOC(=O)Cn1c(=O)oc2cc(S(=O)(=O)NC3CCCc4ccccc43)ccc21 (centres unmarked)	8.52%
COc1cccc(C(=O)N(CN2CCCC2=O)c2cccc(Cl)c2)c1	-25.4%
CC1(C(=O)NC(=S)N(Cc2ccccc2)c2ccccn2)CC1(Cl)Cl (centres unmarked)	17.1%
CC1CCCCC1NC(=O)c1ccc(S(=O)(=O)N2CCCC2)cc1 (centres unmarked)	10.3%
Cc1nn(CC(=O)Nc2c(C)n(C)n(-c3ccccc3)c2=O)c(C)c1[N+](=O)[O-]	8.37%
COc1ccc(NC(=S)NC(=O)Cc2ccccc2)c(OC)c1	16.3%
O=C(CN1C(=O)NC2(CCCC2)C1=O)Nc1nc2ccccc2[nH]1	14.3%
CCc1ccc(C(=O)OCC(=O)NCCNC(=O)COC(=O)c2ccc(CC)cc2)cc1	10.7%
CCOc1cc(C2C(C(=O)OC)=C(C)N=C3SC(C)C(=O)N32)ccc1OC(C)=O (centres unmarked)	-7.61%
c1ccc(-c2noc(-c3ccccc3-c3ccccc3)n2)cc1	5.26%
COc1ccc(C(=O)NNC(=O)CN2CCC(n3nnc4cc(C(F)(F)F)ccc43)CC2)cc1	-10.4%
CC(C)N1C(=O)c2ccc(C(=O)O)cc2C1=O	4.83%

Compound	hERG current change (%, negative = inhibition) at 10uM
CCOC(=O)CN1N=C(c2ccc(C)cc2)CCC1=O	-47.2%
Nn1c(SCC(=O)NCCN2C(=O)CSC2=O)nnc1-c1ccc(OC(F)F)cc1	13.2%
CC(=O)O[C@]1(C(C)=O)CC[C@H]2[C@@H]3C=C(Cl)C4=CC(=O)CC[C@]4(C)[C@H]3CC[C@@]21C	-25.1%
Cc1ccc(S(=O)(=O)N2CCCN(S(=O)(=O)c3ccc4c(c3)OCCO4)CC2)cc1	-3.4%
C(=NC12CN3CN(CN(C3)C1)C2)c1cccs1	18.9%
O=c1oc2ccccc2c(NC2CCCCC2)c1NS(=O)(=O)c1ccc(F)c(Cl)c1	27.2%
CC(=O)Nc1ccc(NC(=O)C2CCCCC2C(=O)O)cc1 (centres unmarked)	7.4%
CC(C)(Oc1ccc(C2CC2(Cl)Cl)cc1)C(=O)O (centres unmarked)	-7.57%
O=C(Nc1nccs1)C1CCN(S(=O)(=O)c2cccs2)CC1	-24.1%
Cl.O=C(NCCCn1ccnc1)c1cccc(S(=O)(=O)N2CCCCCC2)c1	-17.7%
Cc1ccc(-c2c[n+](CC(=O)Nc3ccccc3)c3n2CCC3)cc1.[Cl-]	-27.8%
O=C(c1cccn2c(=O)c3cc(Br)ccc3nc12)N1CCC2(CC1)OCCO2	-37%
CCOC(=O)c1c(NC(=O)C2=C(C)NC(=S)NC2c2ccc(F)cc2)sc(C)c1C (centres unmarked)	0.0855%
O=C(NCCc1c[nH]c2ccccc12)N[C@@H](Cc1ccccc1)C(=O)O	15.6%
Fc1ccc(NCc2nnc3n2CCCCC3)cc1	22%
COc1ccc(OCCn2c(=O)sc3ccccc32)cc1	-8.81%
CCOC(=O)CCC(=O)NNC(=O)c1ccc(NC(=O)c2ccccc2)cc1	12.7%
O=C(NCc1ccccc1Cl)c1nnc(CS(=O)(=O)c2ccccc2)o1	-21.5%
O=C(/C=C/c1cccs1)N1CCN(Cc2ccc3c(c2)OCO3)CC1	-47.9%
CC(C)(C)NC(=O)CN(CCc1ccccc1)C(=O)c1csnn1	17.2%
